About 14,000 (4.5%) of roughly 310,000 compounds showed an effect of 50% or more. The effect is printed as a negative number. The list shows a part of the results.
Biological target: human ether-à-go-go-related gene (hERG) potassium channel (human, UniProt Q12809)
Experiment: primary screen, population patch clamp on CHO cells stably expressing hERG
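Note: peak tail current of the secondary pulse compared with the same well before compound.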

Chain of human ether-à-go-go-related gene (hERG) potassium channel (Q12809 whole entry, looked up): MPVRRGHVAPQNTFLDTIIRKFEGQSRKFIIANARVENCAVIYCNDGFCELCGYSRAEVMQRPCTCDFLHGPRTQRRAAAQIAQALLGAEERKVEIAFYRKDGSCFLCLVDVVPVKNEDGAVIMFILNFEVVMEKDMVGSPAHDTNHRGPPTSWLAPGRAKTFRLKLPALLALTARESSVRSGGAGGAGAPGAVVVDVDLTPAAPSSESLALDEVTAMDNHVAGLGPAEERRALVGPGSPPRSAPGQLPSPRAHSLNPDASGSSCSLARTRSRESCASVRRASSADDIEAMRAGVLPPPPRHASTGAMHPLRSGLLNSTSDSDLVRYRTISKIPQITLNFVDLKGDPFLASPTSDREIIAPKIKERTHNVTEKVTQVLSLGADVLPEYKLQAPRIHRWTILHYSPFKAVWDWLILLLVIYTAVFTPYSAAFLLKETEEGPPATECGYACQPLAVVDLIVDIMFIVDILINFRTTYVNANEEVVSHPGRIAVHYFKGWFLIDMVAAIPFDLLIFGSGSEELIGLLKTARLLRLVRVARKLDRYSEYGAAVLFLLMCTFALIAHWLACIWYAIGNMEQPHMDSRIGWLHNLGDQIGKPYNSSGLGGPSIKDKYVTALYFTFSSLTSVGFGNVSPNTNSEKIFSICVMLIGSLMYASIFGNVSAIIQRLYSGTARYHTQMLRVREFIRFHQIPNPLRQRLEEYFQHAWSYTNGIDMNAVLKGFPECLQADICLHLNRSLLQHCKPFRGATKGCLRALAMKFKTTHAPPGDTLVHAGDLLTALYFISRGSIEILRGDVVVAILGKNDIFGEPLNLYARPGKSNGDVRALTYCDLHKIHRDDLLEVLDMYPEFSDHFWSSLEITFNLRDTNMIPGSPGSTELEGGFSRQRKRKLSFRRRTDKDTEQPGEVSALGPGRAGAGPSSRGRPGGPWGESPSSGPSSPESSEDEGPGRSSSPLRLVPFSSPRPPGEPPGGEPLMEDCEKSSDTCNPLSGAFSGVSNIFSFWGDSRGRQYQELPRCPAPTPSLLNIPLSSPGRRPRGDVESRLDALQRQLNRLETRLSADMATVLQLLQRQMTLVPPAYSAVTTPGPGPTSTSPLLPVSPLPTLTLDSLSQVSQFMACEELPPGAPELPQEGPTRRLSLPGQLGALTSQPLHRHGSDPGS

Structure (SMILES) | hERG current change (%, negative = inhibition) at 10uM
COc1ccc(S(=O)(=O)N2CCC(C(=O)N3CCCCC3)CC2)cc1Cl | -20.7%
CC(C)c1ccc(C2(C)NC(=O)N(CC(=O)NC3(C#N)CCCC3)C2=O)cc1 (centres unmarked) | -1.08%
COCCN1Cc2cccc(C(=O)Nc3cccnc3)c2C1=O | -32.6%
COc1ccc(-n2c(-c3ccc(Br)cc3)c[n+]3c2SC(C)C3)cc1.[Br-] (centres unmarked) | -72.6%
Cc1ccc(CN(C)c2nc(-c3cccnc3)nc3ccccc23)o1 | 12.7%
CS(=O)(=O)CCC(C(=O)Nc1ccc2c(c1)OCO2)N1Cc2ccccc2C1=O (centres unmarked) | 15.4%
CN(C(=O)c1cccc(C#N)c1)c1nnc(C2CCOC2)s1 (centres unmarked) | -0.542%
COc1cc(Br)cc(/C=N/N(CCO)C2=NS(=O)(=O)c3ccccc32)c1OC | -30.8%
O=C(C/C=N\OCc1ccc(Cl)cc1Cl)Nc1ccccc1 | 8.61%
Cn1nnc(NC(=O)c2cccc(F)c2)n1 | 16.6%
O=C(/C=C/c1ccccc1Cl)Nc1cccc(O)c1 | 11.2%
Cc1ccc2nc(SCC(=O)c3ccc(Cl)cc3)nc(=O)n2c1 | -7.93%
O=C(CCSc1ccc(Cl)cc1)c1ccco1 | -25.2%
CCOc1ccc(NC(=O)CCCCn2c(=O)[nH]c3ccsc3c2=O)cc1 | -30.3%
CC(C)c1nc(SCC(=O)N2CCCC2)c2ccccc2n1 | -10.3%
FC(F)(F)c1cc(-c2cccs2)nc(-n2cc(Cl)cn2)n1 | 0.253%
Cc1cc(C)c(C)c(S(=O)(=O)N2CCN(C(=O)c3ccco3)CC2)c1C | -23.5%
Br.c1ccc2c(CCNCc3ccc4c(c3)OCO4)c[nH]c2c1 | -8.18%
O=C(NCCc1ccccc1)c1nc2c(nnn2Cc2ccccc2Cl)c(=O)[nH]1 | -2.86%

Structure (SMILES) | hERG current change (%, negative = inhibition) at 10uM
Cc1ccccc1C(=O)N1CCC(C(=O)NC(C)c2ccc(-n3ccnc3)cc2)CC1 (centres unmarked) | -23%
COc1cc(Cc2cnc(N)nc2N)cc(OC)c1OC | -7.16%
O=C(O)c1cccc(S(=O)(=O)Nc2ccc([N+](=O)[O-])cc2O)c1 | 5.03%
N/C(Cc1cccc2ccccc12)=N\O | 2.9%
COc1ccc(C2=NN(C(=O)CSc3nc4ccccc4s3)C(c3ccc(OC)cc3)C2)cc1 (centres unmarked) | 6.16%
O=C(Nc1cccc2nsnc12)c1ccc2c(c1)OCCO2 | 8.64%
CC(C)(C)c1ccc(C(CC(=O)O)NC(=O)c2ccccc2F)cc1 (centres unmarked) | 22.8%
COc1ccc(NC(=O)C(CC(=O)O)Cc2ccc(C)cc2)cc1 (centres unmarked) | 7.47%
CCN1C(=O)[C@@H]2[C@H](C1=O)[C@@H]1C[C@H]3C(=O)N(CC)C(=O)[C@H]3[C@@H]3C1=C(C(=O)N1C(=O)OC(=NCC4CC4)[C@]31C)[C@@H]2C | 17.9%
Cc1cccc(C)c1NS(=O)(=O)c1ccc(-c2ccc(=O)[nH]n2)o1 | -46.2%
CC(=O)OC1CSC2c3ccccc3C(=O)N2Cc2sccc21 (centres unmarked) | 1.4%
Cc1nc2ccc(Br)cn2c1NC(C)(C)C | -20.9%
Cc1cc(Nc2ccccc2)n2nc(C)c(-c3ccccc3)c2n1 | 2.79%
Cc1[nH][nH]c(=O)c1N=Nc1ccc(Cl)cc1 | 2.19%
Cc1ccc(S(=O)(=O)NC2c3cccc4cccc(c34)C2Sc2nc(C)cc(C)n2)cc1 (centres unmarked) | -36.2%
Cc1c(C(=S)NC(=O)C2CC2)c(=O)n(-c2ccccc2)n1C | 29.3%
NS(=O)(=O)c1ccc(S(=O)(=O)NCCc2ccccc2)cc1 | 7.05%
Cc1ccc(NC(=O)NCCCc2ccccc2)cc1 | -7.34%
COc1ccc2oc(C(F)(F)C(F)F)cc(=O)c2c1 | 1.41%

Structure (SMILES) | hERG current change (%, negative = inhibition) at 10uM
O=C(CN1C(=O)c2ccccc2C1=O)Nc1nccs1 | 16.2%
CC1CCN(S(=O)(=O)c2ccc(NC(=O)C3CSC4(C)CCC(=O)N34)cc2)CC1 (centres unmarked) | -6.34%
CN(C)c1cccc2c(/C=N/O)ccc(N(C)C)c12 | -10.3%
Cc1ccc(S(=O)(=O)N2CCN(CC(O)COc3ccccc3)CC2)cc1 (centres unmarked) | -16.2%
O=C(CCN1C(=O)C2C3C=CC(C3)C2C1=O)NCc1cccnc1 (centres unmarked) | 14.2%
Cc1cc(C)n2nc(N)c(N=Nc3ccc(Cl)cc3)c2n1 | -13.8%
CC1(C)CC(N(Cc2ccc(F)cc2)C(=O)c2ccc(F)cc2)CCO1 (centres unmarked) | -14.4%
O=C(CNCCc1ccccc1)N1CCc2ccccc2C1.O=C(O)C(=O)O | -29.4%
CC(Oc1ccc2ccc(=O)oc2c1)C(=O)N1CCOCC1 (centres unmarked) | 7.76%
Cn1nc(-c2ccc(Cl)cc2)c2cc(C(=O)N3CCN(c4ccccn4)CC3)sc21 | 2.09%
Cc1cc(C)cc(Oc2ncnc3c2ncn3Cc2c(Cl)cccc2Cl)c1 | -8.98%
COc1ccc(N2CCN(CC(O)COc3ccc4c(c3)CCC4)CC2)cc1.Cl (centres unmarked) | -48.3%
COCCn1c(C)cc(C(=O)COC(=O)C2CC(=O)N(CCc3ccc(OC)c(OC)c3)C2)c1C (centres unmarked) | -0.473%
CC(C)C[C@H](NC(=O)OC(C)(C)C)C(=O)N1CCC(C(=O)N[C@@H](Cc2c[nH]c3ccccc23)C(=O)O)CC1 | 18.8%
Cc1ccc2nc(-c3ccccc3)c(CN3CCN(c4ccccc4F)CC3)n2c1 | 1.85%
O=S(=O)(NC1CCCCC1Nc1ccccc1)c1ccccc1 (centres unmarked) | 6%
O=C1CN(C(=O)c2ccccc2)c2ccccc2N1 | -3.79%
CC(=O)Oc1ccc(-c2cccc(C(=O)OCC(=O)N(C)c3ccccc3)c2)cc1 | -8.25%
